# Experimental data reported in publication PMC4336329 (PLoS ONE, 2015).
# The whole screen tested about 310,000 compounds, of which about 14,000 (4.5%) showed an effect of 50% or more. Effects have a minus sign here. The list shows a part of the results.
# Target: human ether-à-go-go-related gene (hERG) potassium channel (human, UniProt Q12809)
# Experiment: primary screen, population patch clamp on CHO cells stably expressing hERG
# 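Note: peak tail current of the secondary pulse compared with the same well before compound.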
# Sequence of human ether-à-go-go-related gene (hERG) potassium channel (Q12809 whole entry, looked up): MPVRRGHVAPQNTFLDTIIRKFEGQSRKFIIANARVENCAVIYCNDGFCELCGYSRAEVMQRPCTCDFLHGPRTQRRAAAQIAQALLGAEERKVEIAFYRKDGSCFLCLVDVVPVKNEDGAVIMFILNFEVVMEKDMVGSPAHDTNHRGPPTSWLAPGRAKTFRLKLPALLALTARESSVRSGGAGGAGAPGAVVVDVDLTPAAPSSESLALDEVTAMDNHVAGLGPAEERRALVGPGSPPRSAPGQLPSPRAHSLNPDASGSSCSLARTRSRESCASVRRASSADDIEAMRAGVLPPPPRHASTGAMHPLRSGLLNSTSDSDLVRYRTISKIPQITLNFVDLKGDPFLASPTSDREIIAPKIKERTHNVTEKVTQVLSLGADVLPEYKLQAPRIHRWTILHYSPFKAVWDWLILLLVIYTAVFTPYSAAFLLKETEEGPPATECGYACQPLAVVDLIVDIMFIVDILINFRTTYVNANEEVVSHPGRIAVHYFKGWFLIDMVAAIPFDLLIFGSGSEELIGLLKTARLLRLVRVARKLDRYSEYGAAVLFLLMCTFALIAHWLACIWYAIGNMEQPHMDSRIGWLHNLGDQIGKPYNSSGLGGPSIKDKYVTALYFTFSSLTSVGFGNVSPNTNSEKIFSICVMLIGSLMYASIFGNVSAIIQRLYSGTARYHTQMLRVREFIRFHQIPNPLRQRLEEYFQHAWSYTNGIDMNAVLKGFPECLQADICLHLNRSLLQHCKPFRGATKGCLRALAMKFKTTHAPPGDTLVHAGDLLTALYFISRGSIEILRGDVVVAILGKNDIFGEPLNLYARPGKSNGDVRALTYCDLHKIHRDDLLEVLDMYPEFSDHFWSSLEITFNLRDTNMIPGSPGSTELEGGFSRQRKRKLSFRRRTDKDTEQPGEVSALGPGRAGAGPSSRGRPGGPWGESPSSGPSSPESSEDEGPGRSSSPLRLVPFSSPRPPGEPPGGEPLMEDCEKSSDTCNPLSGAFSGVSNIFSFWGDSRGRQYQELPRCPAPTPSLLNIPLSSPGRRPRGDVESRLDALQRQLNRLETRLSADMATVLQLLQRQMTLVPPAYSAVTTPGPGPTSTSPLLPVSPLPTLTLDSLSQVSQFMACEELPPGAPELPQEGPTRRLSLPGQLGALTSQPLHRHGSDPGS
row,Compound,"hERG current change (%, negative = inhibition) at 10uM [%]"
1,NNC(=O)CNC(c1ccccc1)c1cc(Br)ccc1NC(=O)c1ccc(Br)cc1 (centres unmarked),-27.1
2,COc1cccc(/C=C/C(=C2/C(=O)N(c3ccccc3)N=C2C)c2ccc(Br)cc2)c1OC,4.39
3,O=S(=O)(c1cc(Cl)ccc1Cl)n1cccn1,30.9
4,O=C(COc1ccc(S(=O)(=O)N2CCOCC2)cc1)Nc1ccc2c(c1)OCCO2,-19.1
5,O=C(COC(=O)C1=COCCO1)Nc1cc(S(=O)(=O)N2CCCCC2)ccc1Cl,-7.45
6,Cc1cccn2c(=O)c3cc(C#N)c(=O)n(CCCN4CCOCC4)c3nc12,-60.7
7,COc1ccc(-c2cc(C)no2)cc1S(=O)(=O)NCC1CCN(Cc2cc(C)ccc2C)CC1,-72
8,O=c1[nH]c(NC2CCCCC2)nnc1Cc1ccccc1,6.98
9,Cc1ccc(S(=O)(=O)N2CCN(C)CC2)cc1-c1nnc2c3ccccc3c(C)nn12,-17.6
10,O=S(=O)(Cc1noc(-c2ccc(OC(F)(F)F)cc2)n1)c1ccc(F)cc1,-14.8
11,CCOC(=O)CC1C(=O)NCCN1Cc1cccs1 (centres unmarked),6.33
12,Cc1cc(Oc2cc(NN3CCCCC3)c([N+](=O)[O-])cc2[N+](=O)[O-])ccc1[N+](=O)[O-],-1.87
13,CCc1cc2c(-c3ccccc3)cc(=O)oc2cc1OC(C)C(=O)O (centres unmarked),21.2
14,CCCCC(=O)Nc1cnc(NC(=O)c2cccs2)cc1C,-17.5
15,COCCNC(=O)CSc1ccc(-c2nc3ccccc3[nH]2)cn1,4.62
16,COc1ccc(CCC(=O)Nc2nnc(C)s2)cc1,6.76
17,C1=C(c2ccccc2)CCNC1.Cl,2.61
18,COc1ccc2nc(N/C(N)=N/S(C)(=O)=O)nc(C)c2c1,1.56
19,CC(=O)c1ccc(NC(=O)CC23CC4CC(C2)CC(n2nnc(C)n2)(C4)C3)cc1,-8.69

row,Compound,"hERG current change (%, negative = inhibition) at 10uM [%]"
1,C#CCSc1nncn1C(=O)/C=C/c1ccccc1,5.54
2,Cc1ccccc1N1CCN(C2CCCN(C(=O)CCN3CCCO3)C2)CC1 (centres unmarked),-0.397
3,Cc1cc(-c2ccc(C)c(S(=O)(=O)NCCCN3CCN(c4ccccc4)CC3)c2)on1,-33.2
4,CC(=O)c1c(C)[nH]c(C(=O)CN2CCN(S(=O)(=O)c3ccc(C(C)C)cc3)CC2)c1C,8.27
5,COc1ccc(S(=O)(=O)N=C2C=C(C)C(=O)C(C)=C2)cc1,-8.48
6,O=C(/C=C/c1ccccc1)N/C(=C/c1ccccc1)C(=O)NCCCO,-7.96
7,CCC(Oc1ccccc1)C(=O)N1CCN(S(=O)(=O)c2ccccc2)CC1 (centres unmarked),-3.89
8,NC(=O)C1CCN(C(=O)COc2ccc3c4c(c(=O)oc3c2)CCC4)CC1,5.37
9,CC(=O)c1ccc(S(=O)(=O)N(CCCO)Cc2cc3cc(C)ccc3[nH]c2=O)cc1,-25.9
10,Cc1ccnc(SCCn2c(N3CCN(C)CC3)nc3c2c(=O)n(C)c(=O)n3C)n1,13.6
11,Cc1cc(C)nc(NS(=O)(=O)c2ccc(NC(=O)Cc3ccccc3)cc2)n1,25.2
12,CC(C)c1onc(C(=O)Nc2ccc3c(c2)OCO3)c1[N+](=O)[O-],19.7
13,CC1CCCC(C)N1S(=O)(=O)c1ccc(S(=O)(=O)N2CCOCC2)cc1 (centres unmarked),4.83
14,COc1ccc(CC(=O)OCC(=O)N2CCCc3ccccc32)cc1,3.67
15,O=C(CCc1ccccc1)N1CCN(c2ccc(F)cc2)CC1,-23
16,COc1cc(CC(=O)NCCc2ccc(S(N)(=O)=O)cc2)cc(OC)c1OC,13.1
17,O=C(CSc1nnnn1-c1cccnc1)Nc1ccccc1F,15.4
18,Cn1c(=O)c2ccccc2n2c(=S)[nH]nc12,16.2
19,O=C1Nc2cc(C(=O)NCCCN3CCCC3)ccc2S/C1=C\c1ccccc1,-51.4

row,Compound,"hERG current change (%, negative = inhibition) at 10uM [%]"
1,CCN(CC)CCCNC(=S)N1CCn2c(nc3ccccc32)C1,-18.6
2,CCN(C(=O)COc1nc(C)cc(C)c1C#N)c1ccccc1,-11.8
3,Cc1ccc(/C=C/c2nnc(-c3ccc(C)cc3)o2)cc1,11.3
4,COc1ccc(-c2cc(C(=O)OCC(=O)NC(C)C)c3ccccc3n2)cc1,9.82
5,CCn1c2ccccc2c2cc(N=C3SC(CC(=O)Nc4ccccc4OC)C(=O)N3CCOC)ccc21 (centres unmarked),-3.75
6,COc1cccc(Nc2nnc(SCC(=O)N3CC(C)OC(C)C3)s2)c1 (centres unmarked),-2.95
7,C=CCn1c(/N=C/c2ccc(OC)cc2)nc2ccccc21,1.65
8,O=C(c1cc(-c2ccco2)nc2ccccc12)N1CCN(c2ccc(F)cc2)CC1,-28.8
9,O=C(O)C(=O)O.O=[N+]([O-])c1ccccc1CNCCc1ccc(F)cc1,-50
10,Cc1ccc2oc(=O)c3cnn(CC(=O)N(CCCN4CCOCC4)Cc4ccco4)c3c2c1,-57.5
11,CSc1cc(C)nc(N(C)C(C)=O)n1,27.1
12,CN(C(N)=S)c1ccccc1,10.2
13,CCOC(=O)N1CCC(NC(=O)CSCc2nc(-c3ccc(C)cc3)oc2C)CC1,-4.45
14,O=c1ccnc(SCCC(F)=C(F)F)[nH]1,11.9
15,COc1ccc(-c2cc(=O)oc3c(C)c(OC(C)C(C)=O)ccc23)cc1 (centres unmarked),-8.33
16,CSc1ncccc1C(=O)OCC(=O)NCc1ccc2c(c1)OCO2,-1.09
17,Cc1cc(C)nc(-n2nc(C)c3c(C(F)(F)F)cc(=O)[nH]c32)n1,5.73
18,COc1nc(Cl)cn(-c2ccc(Cl)cc2)c1=O,27.3
